These are yes or no findings as the source states them, for the method shown. In cells and extracts the contact can be indirect. Some binding calls cover weakened binding; strength is not graded here. For some of these results: Where a sequence is shown, tags or fusion partners need not be part of it.
Experiments:
[1] = molecular target: GFP-RhoAN19 (UniProt P61586); assay: co-IP; GFP-Trap pull-down (paper's term) of GFP-tagged RhoA constructs from lysates of transfected A375 cells (50 mM Tris-HCl pH 7.5, 150 mM NaCl, 1% Nonidet P-40, 10% glycerol, 10 mM EDTA), overnight at 4 °C; Mdmx co-transfected or endogenous; Western blot
[2] = molecular target: wild type GFP-RhoA (UniProt P61586); assay: as above
[3] = molecular target: recombinant GST-RhoA (UniProt P61586); assay: pull-down; recombinant GST-RhoA loaded in vitro with GDP (0.5 mM, 30 °C, 30 min) on glutathione beads, incubated with A375 cell extracts overnight at 4 °C; endogenous Mdmx detected by Western blot; only the target purified

By UniProt entry, the sequences of proteins in these tests, tags left out. Where a name states a change or a piece, a line headed by the entry shows the natural chain unless it says otherwise. Chains listed by the source or under a name are the forms on record and can include a tag or linker.
UniProt P61586: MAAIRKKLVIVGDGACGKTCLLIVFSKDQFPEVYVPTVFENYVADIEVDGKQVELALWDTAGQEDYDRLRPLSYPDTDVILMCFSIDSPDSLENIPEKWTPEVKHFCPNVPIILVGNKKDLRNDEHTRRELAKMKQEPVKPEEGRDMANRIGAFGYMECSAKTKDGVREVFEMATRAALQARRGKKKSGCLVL
GFP-RhoAN19 (P61586, form named): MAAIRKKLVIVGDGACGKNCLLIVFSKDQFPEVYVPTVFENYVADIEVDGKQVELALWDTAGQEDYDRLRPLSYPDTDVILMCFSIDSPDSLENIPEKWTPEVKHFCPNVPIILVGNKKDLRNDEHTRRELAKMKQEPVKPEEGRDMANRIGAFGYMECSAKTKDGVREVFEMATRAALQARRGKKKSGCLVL

| binding [1] | binding [2] | binding [3] | Binder |
| --- | --- | --- | --- |
| no binding | – | – | N-terminal Mdmx fragment (1–153) (domain or fragment, UniProt O15151 1-153) MTSFSTSAQCSTSDSACRISPGQINQVRPKLPLLKILHAAGAQGEMFTVKEVMHYLGQYIMVKQLYDQQEQHMVYCGGDLLGELLGRQSFSVKDPSPLYDMLRKNLVTLATATTDAAQTLALAQDHSMDIPSQDQLKQSAEESSTSRKRTTED |
| binds | – | – | triple phosphorylation Mdmx mutant S342/S367/S403A (3SA) (protein, UniProt O15151 1-490) MTSFSTSAQCSTSDSACRISPGQINQVRPKLPLLKILHAAGAQGEMFTVKEVMHYLGQYIMVKQLYDQQEQHMVYCGGDLLGELLGRQSFSVKDPSPLYDMLRKNLVTLATATTDAAQTLALAQDHSMDIPSQDQLKQSAEESSTSRKRTTEDDIPTLPTSEHKCIHSREDEDLIENLAQDETSRLDLGFEEWDVAGLPWWFLGNLRSNYTPRSNGSTDLQTNQDVGTAIVSDTTDDLWFLNESVSEQLGVGIKVEAADTEQTSEEVGKVSDKKVIEVGKNDDLEDSKSLSDDTDVEVTSEDEWQCTECKKFNSPSKRYCFRCWALRKDWYSDCSKLTHSLATSDITAIPEKENEGNDVPDCRRTIAAPVVRPKDAYIKKENSKLFDPCNSVEFLDLAHSSEAQETISSMGEQLDNLSEQRTDTENMEDCQNLLKPCSLCEKRPRDGNIIHGRTGHLVTCFHCARRLKKAGASCPICKKEIQLVIKVFIA |
| binds | binds | binds | endogenous Mdmx (protein, UniProt O15151 1-490) MTSFSTSAQCSTSDSACRISPGQINQVRPKLPLLKILHAAGAQGEMFTVKEVMHYLGQYIMVKQLYDQQEQHMVYCGGDLLGELLGRQSFSVKDPSPLYDMLRKNLVTLATATTDAAQTLALAQDHSMDIPSQDQLKQSAEESSTSRKRTTEDDIPTLPTSEHKCIHSREDEDLIENLAQDETSRLDLGFEEWDVAGLPWWFLGNLRSNYTPRSNGSTDLQTNQDVGTAIVSDTTDDLWFLNESVSEQLGVGIKVEAADTEQTSEEVGKVSDKKVIEVGKNDDLEDSKSLSDDTDVEVTSEDEWQCTECKKFNSPSKRYCFRCWALRKDWYSDCSKLTHSLSTSDITAIPEKENEGNDVPDCRRTISAPVVRPKDAYIKKENSKLFDPCNSVEFLDLAHSSESQETISSMGEQLDNLSEQRTDTENMEDCQNLLKPCSLCEKRPRDGNIIHGRTGHLVTCFHCARRLKKAGASCPICKKEIQLVIKVFIA |
| binds | binds | – | HA-Mdmx (protein, UniProt O15151 1-490) MTSFSTSAQCSTSDSACRISPGQINQVRPKLPLLKILHAAGAQGEMFTVKEVMHYLGQYIMVKQLYDQQEQHMVYCGGDLLGELLGRQSFSVKDPSPLYDMLRKNLVTLATATTDAAQTLALAQDHSMDIPSQDQLKQSAEESSTSRKRTTEDDIPTLPTSEHKCIHSREDEDLIENLAQDETSRLDLGFEEWDVAGLPWWFLGNLRSNYTPRSNGSTDLQTNQDVGTAIVSDTTDDLWFLNESVSEQLGVGIKVEAADTEQTSEEVGKVSDKKVIEVGKNDDLEDSKSLSDDTDVEVTSEDEWQCTECKKFNSPSKRYCFRCWALRKDWYSDCSKLTHSLSTSDITAIPEKENEGNDVPDCRRTISAPVVRPKDAYIKKENSKLFDPCNSVEFLDLAHSSESQETISSMGEQLDNLSEQRTDTENMEDCQNLLKPCSLCEKRPRDGNIIHGRTGHLVTCFHCARRLKKAGASCPICKKEIQLVIKVFIA |

Reference: article PMC11475522
